# ± gives the standard deviation of the averaged measurements. The full ranking holds about 4,100 sequences; the median of “relative kcat/Km (krel) vs genomic leader AAAGAU” is about 1.7, and the highest 2% start at about 6.5. The list shows a part of the results, in another mix than the full data.
# Target: T1, E. coli RNase P holoenzyme (M1 P RNA + rnpA protein) (UniProt P0A7Y8)
# T1 sequence: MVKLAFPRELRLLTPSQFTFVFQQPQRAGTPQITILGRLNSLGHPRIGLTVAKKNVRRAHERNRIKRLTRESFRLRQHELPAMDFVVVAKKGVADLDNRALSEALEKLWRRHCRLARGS
# Assay: relative kcat/Km (krel) vs genomic leader AAAGAU (relative (reference leader = 1)); higher = faster RNase P cleavage
# Protocol: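 HTS-Kin: a pool of ptRNA-Met (21C construct) with all 4096 combinations of 5' leader nucleotides N(-6) to N(-1) was processed in vitro by E. coli RNase P (P RNA + rnpA/C5 protein) under multiple-turnover conditions at 37 C, pH 8, 17.5 mM MgCl2. Residual substrate was Illumina-sequenced at several fractions reacted, and relative kcat/Km (krel) was computed by internal competition kinetics, calibrated to the genomic leader (AAAGAU = 1). The listed hexamer is the varied N(-6)..N(-1) leader (DNA letters), and it sits between a fixed 5' stem-loop flank (GCAUGCACGAAAGUGCGUGCUAUGAA) and the mature tRNA-Met starting GGCUACGUAGCUCAGUUGG. Two technical replicates are averaged.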
# [1] = fraction of substrate reacted: ~9-10% (9.79% repeat 1, 9.1% repeat 2)
# [2] = fraction of substrate reacted: ~13-16% (15.68% repeat 1, 13.17% repeat 2)
# [3] = fraction of substrate reacted: ~26-29% (28.66% repeat 1, 26.4% repeat 2)
Sequence,relative kcat/Km [1],relative kcat/Km [2],relative kcat/Km [3]
TTCTTT,4.38 ± 0.77,6.36 ± 1.2,8.65 ± 4
AATTGG,,,0.683 ± 0.13
AGTATG,,0.463 ± 0.43,1.8 ± 0.41
TTGCGA,1.1 ± 0.36,1.53 ± 0.44,1.91 ± 0.14
ATTTCG,,0.774 ± 0.088,1.54 ± 0.3
ACTTTC,2.54 ± 1.1,2 ± 0.66,2.64 ± 0.73
TGCTCA,1.76 ± 0.62,2.48 ± 0.64,2.92 ± 1.3
CTCGGT,,,1.88 ± 0.47
ACTCTT,2.38 ± 0.7,2.15 ± 0.55,2.51 ± 0.61
CGTTTT,2.83 ± 0.53,3.46 ± 0.96,5.18 ± 2.1
AAGTGC,1.56 ± 0.53,1.45 ± 0.37,1.44 ± 0.55
AGCAGG,,,0.91 ± 0.13
ACAGCT,0.826 ± 0.092,,0.873 ± 0.12
GTCACA,3.73 ± 1.8,4.78 ± 1.1,7.01 ± 2.5
GGTTTG,,,0.405 ± 0.073
AATGTA,1.68 ± 0.94,0.976 ± 0.56,1.34 ± 0.42
CCAGGT,,,1.05 ± 0.24
TCAACT,,,1.07 ± 0.23
TGTCAA,3.03 ± 1.6,3.56 ± 0.18,5.75 ± 2.1
GTCATT,4.45 ± 1.6,5.21 ± 2,8.08 ± 4
ACAGGA,,,1.04 ± 0.65
TGAATC,1.86 ± 0.16,1.84 ± 0.4,2.53 ± 0.78
CCAAGA,1.04 ± 0.32,,1.42 ± 0.48
GACTCG,1.8 ± 1.4,1.87 ± 0.13,3.21 ± 0.58
CAATGC,2.39 ± 0.52,2.18 ± 0.45,3.68 ± 1.3
TTGCCA,,,1.11 ± 0.44
AGTGAA,2.54 ± 0.25,2.23 ± 0.96,3.35 ± 1.5
TCGCAG,1.34 ± 0.53,0.983 ± 0.69,2.16 ± 0.16

Sequence,relative kcat/Km [1],relative kcat/Km [2],relative kcat/Km [3]
CGGTAT,0.633 ± 0.21,1.01 ± 0.72,1.32 ± 0.91
CAACCT,1.37 ± 0.53,1.17 ± 0.021,1.52 ± 0.24
TATCTC,2.14 ± 0.37,2.32 ± 0.5,3.37 ± 1.5
TCTACG,0.904 ± 0.44,1.04 ± 0.67,2.26 ± 0.51
TTGATA,1.3 ± 0.25,1.33 ± 0.13,1.55 ± 0.51
ACAAAA,1.77 ± 0.97,1.83 ± 0.079,2.12 ± 0.64
CTTAGT,,1.6 ± 1.2,2.07 ± 1.8
TATATA,2.57 ± 2,2.35 ± 0.29,3.54 ± 1.4
AGGAAT,1.06 ± 0.013,1.49 ± 0.47,1.71 ± 0.61
ATGGCC,1.33 ± 0.72,1.34 ± 0.38,1.03 ± 0.55
TTTGAG,,,1.1 ± 0.04
CAATTA,1.84 ± 1.5,1.86 ± 0.62,2.28 ± 0.56
GCACAC,,0.487 ± 0.34,2.03 ± 0.68
CGGTAG,,0.37 ± 0.12,0.591 ± 0.53
AAGAAT,2.06 ± 0.33,1.89 ± 0.36,3.17 ± 1.4
CAGGCT,,,0.394 ± 0.029
GACCGT,,,1.96 ± 1.6
CTGTAT,3.52 ± 0.71,3.09 ± 0.81,4.53 ± 1.6
CGTAAA,2.72 ± 0.049,3.22 ± 1.9,5.51 ± 2.3
TCTAAG,2.04 ± 1.6,1.47 ± 0.52,2.47 ± 0.27
ACTCTC,2.34 ± 0.92,2.14 ± 0.78,2.26 ± 0.68
CTTTGG,0.744 ± 0.3,,
CTCGTA,3.1 ± 0.69,3.21 ± 0.68,4.83 ± 2
AAGTAT,2.47 ± 0.78,2.76 ± 0.072,4.3 ± 2
GGTCTA,0.826 ± 0.33,0.795 ± 0.069,1.16 ± 0.36
ATCTTT,3.55 ± 1.4,4.27 ± 0.42,6.67 ± 2.8
ACATAA,3.21 ± 1.3,3.57 ± 0.46,5.11 ± 2.7
